This is an account of results in paper PMC9911399, “Two distinct binding modes provide the RNA-binding protein RbFox with extraordinary sequence specificity”.

The labels stand for the following.
T1: RBFOX1 RRM RbFoxmut (Fox-RRM*) (Homo sapiens, UniProt Q9NWB1 109-208, R118D;E147R;N151S;E152T)
T1 sequence: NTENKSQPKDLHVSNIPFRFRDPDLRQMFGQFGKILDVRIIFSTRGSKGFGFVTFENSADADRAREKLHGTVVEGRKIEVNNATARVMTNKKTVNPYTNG

B1: AUAAAGG (DNA:RNA)
RNA: GGGAGACCGGAAUUCAGAUUGUCCAUAAAGGUUAAAUCCCGUCGUAGCCACCA
DNA 1: CAATCTGAATTCCGGTCTCCC
DNA 2: TGGTGGCTACGACGGGATT
B2: CGUCUCC (DNA:RNA)
RNA: GGGAGACCGGAAUUCAGAUUGUCCCGUCUCCUUAAAUCCCGUCGUAGCCACCA
DNA 1: CAATCTGAATTCCGGTCTCCC
DNA 2: TGGTGGCTACGACGGGATT
B3: CGUGUCC (DNA:RNA)
RNA: B2 RNA with C28G
DNA 1: CAATCTGAATTCCGGTCTCCC
DNA 2: TGGTGGCTACGACGGGATT
B4: UUGGUGA (DNA:RNA)
RNA: B1 RNA with A25U, A27G, A28G, A29U, G31A
DNA 1: CAATCTGAATTCCGGTCTCCC
DNA 2: TGGTGGCTACGACGGGATT
B5: GGAGAGC (DNA:RNA)
RNA: B1 RNA with A25G, U26G, A28G, G31C
DNA 1: CAATCTGAATTCCGGTCTCCC
DNA 2: TGGTGGCTACGACGGGATT
B6: AGUGCAU (DNA:RNA)
RNA: B2 RNA with C25A, C28G, U29C, C30A, C31U
DNA 1: CAATCTGAATTCCGGTCTCCC
DNA 2: TGGTGGCTACGACGGGATT
B7: CCACUUA (DNA:RNA)
RNA: B2 RNA with G26C, U27A, C30U, C31A
DNA 1: CAATCTGAATTCCGGTCTCCC
DNA 2: TGGTGGCTACGACGGGATT
B8: CCCAAAA (DNA:RNA)
RNA: B1 RNA with A25C, U26C, A27C, G30A, G31A
DNA 1: CAATCTGAATTCCGGTCTCCC
DNA 2: TGGTGGCTACGACGGGATT
B9: UGGCGUU (DNA:RNA)
RNA: B2 RNA with C25U, U27G, U29G, C30U, C31U
DNA 1: CAATCTGAATTCCGGTCTCCC
DNA 2: TGGTGGCTACGACGGGATT
B10: AAGUUUU (DNA:RNA)
RNA: B1 RNA with U26A, A27G, A28U, A29U, G30U, G31U
DNA 1: CAATCTGAATTCCGGTCTCCC
DNA 2: TGGTGGCTACGACGGGATT
B11: GUUCGAC (DNA:RNA)
RNA: B2 RNA with C25G, G26U, U29G, C30A
DNA 1: CAATCTGAATTCCGGTCTCCC
DNA 2: TGGTGGCTACGACGGGATT
B12: AGGAGCG (DNA:RNA)
RNA: B1 RNA with U26G, A27G, A29G, G30C
DNA 1: CAATCTGAATTCCGGTCTCCC
DNA 2: TGGTGGCTACGACGGGATT
B13: ACUGCUG (DNA:RNA)
RNA: B1 RNA with U26C, A27U, A28G, A29C, G30U
DNA 1: CAATCTGAATTCCGGTCTCCC
DNA 2: TGGTGGCTACGACGGGATT
B14: GAUAAGA (DNA:RNA)
RNA: B1 RNA with A25G, U26A, A27U, G31A
DNA 1: CAATCTGAATTCCGGTCTCCC
DNA 2: TGGTGGCTACGACGGGATT
B15: AAUCACA (DNA:RNA)
RNA: B2 RNA with C25A, G26A, U29A, C31A
DNA 1: CAATCTGAATTCCGGTCTCCC
DNA 2: TGGTGGCTACGACGGGATT
B16: CUUGCAU (DNA:RNA)
RNA: B2 RNA with G26U, C28G, U29C, C30A, C31U
DNA 1: CAATCTGAATTCCGGTCTCCC
DNA 2: TGGTGGCTACGACGGGATT
B17: GCGACCA (DNA:RNA)
RNA: B1 RNA with A25G, U26C, A27G, A29C, G30C, G31A
DNA 1: CAATCTGAATTCCGGTCTCCC
DNA 2: TGGTGGCTACGACGGGATT
B18: UUAGGUC (DNA:RNA)
RNA: B1 RNA with A25U, A28G, A29G, G30U, G31C
DNA 1: CAATCTGAATTCCGGTCTCCC
DNA 2: TGGTGGCTACGACGGGATT
B19: CGGGCUG (DNA:RNA)
RNA: B2 RNA with U27G, C28G, U29C, C30U, C31G
DNA 1: CAATCTGAATTCCGGTCTCCC
DNA 2: TGGTGGCTACGACGGGATT
B20: AUUCCGC (DNA:RNA)
RNA: B1 RNA with A27U, A28C, A29C, G31C
DNA 1: CAATCTGAATTCCGGTCTCCC
DNA 2: TGGTGGCTACGACGGGATT
B21: UAUUACC (DNA:RNA)
RNA: B2 RNA with C25U, G26A, C28U, U29A
DNA 1: CAATCTGAATTCCGGTCTCCC
DNA 2: TGGTGGCTACGACGGGATT
B22: AAAACAA (DNA:RNA)
RNA: B1 RNA with U26A, A29C, G30A, G31A
DNA 1: CAATCTGAATTCCGGTCTCCC
DNA 2: TGGTGGCTACGACGGGATT
B23: GGGGGGA (DNA:RNA)
RNA: B1 RNA with A25G, U26G, A27G, A28G, A29G, G31A
DNA 1: CAATCTGAATTCCGGTCTCCC
DNA 2: TGGTGGCTACGACGGGATT
B24: UCGGUAG (DNA:RNA)
RNA: B1 RNA with A25U, U26C, A27G, A28G, A29U, G30A
DNA 1: CAATCTGAATTCCGGTCTCCC
DNA 2: TGGTGGCTACGACGGGATT
B25: AAGAUUU (DNA:RNA)
RNA: B1 RNA with U26A, A27G, A29U, G30U, G31U
DNA 1: CAATCTGAATTCCGGTCTCCC
DNA 2: TGGTGGCTACGACGGGATT
B26: GGUUUAC (DNA:RNA)
RNA: B2 RNA with C25G, C28U, C30A
DNA 1: CAATCTGAATTCCGGTCTCCC
DNA 2: TGGTGGCTACGACGGGATT
B27: CCAUUCU (DNA:RNA)
RNA: B2 RNA with G26C, U27A, C28U, C31U
DNA 1: CAATCTGAATTCCGGTCTCCC
DNA 2: TGGTGGCTACGACGGGATT
B28: UGACCUG (DNA:RNA)
RNA: B1 RNA with A25U, U26G, A28C, A29C, G30U
DNA 1: CAATCTGAATTCCGGTCTCCC
DNA 2: TGGTGGCTACGACGGGATT
B29: CCUGCGU (DNA:RNA)
RNA: B2 RNA with G26C, C28G, U29C, C30G, C31U
DNA 1: CAATCTGAATTCCGGTCTCCC
DNA 2: TGGTGGCTACGACGGGATT
B30: AUCAGGU (DNA:RNA)
RNA: B1 RNA with A27C, A29G, G31U
DNA 1: CAATCTGAATTCCGGTCTCCC
DNA 2: TGGTGGCTACGACGGGATT
B31: AAAAUUA (DNA:RNA)
RNA: B1 RNA with U26A, A29U, G30U, G31A
DNA 1: CAATCTGAATTCCGGTCTCCC
DNA 2: TGGTGGCTACGACGGGATT

Substitutions are numbered along the chain they refer to; changes in the protein carry UniProt numbers. The list shows a part of the results.

For this assay, the target named is T1, RBFOX1 RRM RbFoxmut (Fox-RRM*). The experiment in a line: EMSA; HiTS-Eq, 1 nM pool, 10 min; buffer printed only for the single-RNA assays: 10 mM Tris pH 7.5, 150 mM NaCl, 3.4 mM EDTA, 0.001% NP-40, 30 C. As to conditions: tags: His6 N-terminal (pET28a); label: 5' 32P. An outline of the steps:
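Purified RbFox RRM (wild type or mutant) was equilibrated for 10 min in 50 µL with 1 nM of a 5′-radiolabelled pool of RNA with 7 randomized nucleotides, its flanks annealed to DNA oligonucleotides, across increasing protein concentrations. Free RNA was separated by 8% native PAGE, excised, reverse-transcribed, PCR-barcoded and sequenced on an Illumina HiSeq 2500. Relative association constants came from read-count changes of each variant against the control reaction, normalised to the cognate motif.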
Regarding B1, the binding signal is 0.0735 KA relative to UGCAUGU.

In the case of B2, the binding signal was 0.0476 KA relative to UGCAUGU.

In the case of B3, the binding signal was 0.0868 KA relative to UGCAUGU.

B4: the binding signal is 0.0857 KA relative to UGCAUGU.

Take B5: the binding signal was 0.0739 KA relative to UGCAUGU.

On to B6, for which the binding signal is 0.119 KA relative to UGCAUGU.

Consider B7, for which the binding signal was 0.0992 KA relative to UGCAUGU.

B8: the binding signal is 0.0741 KA relative to UGCAUGU.

For the molecule B9, the binding signal is 0.112 KA relative to UGCAUGU.

On to B10, for which the binding signal is 0.105 KA relative to UGCAUGU.

On to B11, for which the binding signal is 0.105 KA relative to UGCAUGU.

On to B12, for which the binding signal is 0.174 KA relative to UGCAUGU.

Take B13: the binding signal was 0.104 KA relative to UGCAUGU.

As for B14, the binding signal was 0.0718 KA relative to UGCAUGU.

For B15, the binding signal was 0.0701 KA relative to UGCAUGU.

As to B16, the binding signal is 0.146 KA relative to UGCAUGU.

In the case of B17, the binding signal was 0.0669 KA relative to UGCAUGU.

On to B18, for which the binding signal was 0.117 KA relative to UGCAUGU.

As to B19, the binding signal is 0.246 KA relative to UGCAUGU.

Turning to B20, the binding signal was 0.0872 KA relative to UGCAUGU.

Take B21: the binding signal was 0.0868 KA relative to UGCAUGU.

As to B22, the binding signal is 0.0697 KA relative to UGCAUGU.

As to B23, the binding signal is 0.082 KA relative to UGCAUGU.

As to B24, the binding signal was 0.123 KA relative to UGCAUGU.

B25: the binding signal is 0.106 KA relative to UGCAUGU.

Regarding B26, the binding signal is 0.0711 KA relative to UGCAUGU.

As to B27, the binding signal was 0.0706 KA relative to UGCAUGU.

With B28, the binding signal was 0.123 KA relative to UGCAUGU.

B29: the binding signal is 0.119 KA relative to UGCAUGU.

Take B30: the binding signal was 0.144 KA relative to UGCAUGU.

For B31, the binding signal was 0.0817 KA relative to UGCAUGU.
